Measurements: PubChem BioAssay AID1963576 (National Center for Advancing Translational Sciences (NCATS), 2024)
Hit rate of the full screen: of about 46,000 compounds, about 60 (0.1%) were called active. Inconclusive results (about 3%) are left out. The call rests on the fitted dose curve; in most records, active means well fitted inhibition curve with a large enough effect; inconclusive means small, poorly fitted or top-dose-only effect; inactive means no such curve, though single readings can be large or run the other way. This is one part of the list.

Experiment: Primary qHTS assay for Inhibitors of ovarian cancer metastasis using an organotypic tumor microenvironment (TME) model. Further: nearly all actives have a fitted effect of over 65% in size.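 On activity change, negative = inhibition: plate controls were DMSO wells for no effect and tomatine positive control wells for full effect.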
Settings: SKOV3ip1-GFP adhesion/invasion on 3D omental model, fluorescence; series mostly up to 45.8 µM; activity change, negative = inhibition: at the top concentration
How it was run: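 Adhesion/invasion was scored as fixed GFP-labeled SKOV3ip1 cell counts (488/509 nm), normalized to DMSO and tomatine controls. Cancer cells in serum-free medium, with four compound doses (0.36-46 umol/L), sat 2 hr at RT then 16 hr at 37 C on a 48 hr fibroblast/mesothelial/ECM culture.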

outcome, inactive:
COc1ccc(NC(=O)Cn2c(=O)n(-c3ccc(C)c(C)c3)c(=O)c3c4c(sc32)CCCCC4)cc1Cl
Cc1ccc(/C=C/c2nc3ccccc3n2S(=O)(=O)c2cccc(Cl)c2)cc1
O=C(CCn1c(=O)c2cccn2c2cccnc21)NCc1ccc(Cl)cc1
COC(=O)c1ccc(NC(=O)C(=O)NCCc2sc3nc(-c4ccc(OC)cc4)nn3c2C)cc1
CC(CC(=O)NCc1ccc(Cl)cc1Cl)CC1=NS(=O)(=O)c2ccccc2N1 (stereo not given)
Oc1cccc(-c2nc(-c3cccs3)c(-c3cccs3)[nH]2)c1
Cc1ccccc1OCCSc1nnc(-c2ccc([N+](=O)[O-])cc2)o1
Cc1ccc(NS(=O)(=O)c2ccc(-c3cc(C)no3)cc2)c(C)c1
O=C(c1ccc2c(c1)N(Cc1cccc(Cl)c1)C(=O)c1ccccc1S2(=O)=O)N1CCN(Cc2ccccc2)CC1
CCc1cc(=O)oc2c(C)c3c(cc12)CN(CCc1ccccc1)CO3
COc1ccc(CNC(=O)Cn2c(=O)n3nc(-c4cccc(F)c4)nc3c3ccccc32)cc1OC
CCS(=O)(=O)N1CCc2cc(C(=O)Nc3cccc(NC(C)=O)c3)ccc21
O=C(Nc1c(C(=O)N2CCN(c3ccccc3F)CC2)oc2ccccc12)c1ccc(Br)o1
Oc1ccccc1-c1nc2ccc(Cl)cn2c1Nc1ccc2c(c1)OCCO2
Cn1c(=O)oc2cc(S(=O)(=O)N3CCCC(C(=O)N4CCN(c5ccc(F)cc5)CC4)C3)ccc21 (stereo not given)
Cc1ccc(-n2c(-c3cccc(C)c3)nc3c(cnn3-c3ccccc3)c2=O)cc1
CCc1nn(CC(=O)NCCCOC)c(=O)c2cc3occc3n12
Cc1nc2ccc(S(=O)(=O)CCC(=O)Nc3ccc(F)cc3C)cc2s1
CCc1ccc(NC(=O)C2CCN(c3cc(C)nc4c(-c5ccc(Cl)cc5)c(C)nn34)CC2)cc1
Cc1cc(OCCCSc2nc(-c3ccc(C(C)(C)C)cc3)nc3cc(=O)[nH]n23)ccc1Cl
CNS(=O)(=O)c1cn(CC(=O)Nc2ccc(C)cc2C)cc1S(=O)(=O)NC
COc1ccc(CCNC(=O)CCc2c(C)nc3c(c(C)nn3-c3ccc(C)cc3)c2C)c(OC)c1
CCc1ccccc1NC(=O)C1CCCN(S(=O)(=O)c2cccc3nsnc23)C1 (stereo not given)
COc1ccc2c(c1)c(=O)c(S(=O)(=O)c1ccc(C)c(C)c1)cn2CC(=O)Nc1ccccc1
CCN(CCCNC(=O)c1cc2c(=O)n(CC)c3ccccc3c2s1)c1cccc(C)c1
Cc1ccc(-c2cc(C(=O)O)n(Cc3ccccc3)n2)cc1
Cc1ccc(S(=O)(=O)c2nc(-c3ccccc3)oc2N2CCN(c3ccccc3)CC2)cc1

Activity change, negative = inhibition, inactive:
Cn1c(C(=O)N2CCCC(C(=O)N3CCN(c4ccccc4)CC3)C2)cc2sccc21 (stereo not given) -3.56%
CCN(CC)C(=O)C1CCN(c2cc(C)nc3c(-c4ccc(OC)c(OC)c4)c(C)nn23)CC1 -4%
COc1cc2c(cc1OC)n(CC(=O)Nc1ccccc1)c(=O)n1nc(-c3ccccc3)nc21 -14.5%
COc1ccccc1NC(=O)C1=C(C)Nc2c(C(=O)Nc3cccc(C)c3)cnn2C1c1ccccc1C (stereo not given) 18.8%
COc1ccc(CCNC(=O)c2cc(=O)c3c(C)cc(C)cc3o2)cc1OC -0.693%
O=c1oc2c(O)c(O)cc3c(=O)oc4c(O)c(O)cc1c4c23 -2.79%
Cc1nc2ccn(Cc3cccs3)c(=O)c2cc1C(=O)NCc1ccc(Cl)cc1 -2.15%
Cc1ccc(Nc2nc3c(S(=O)(=O)c4ccccc4)nnn3c3ccc(Cl)cc23)c(C)c1 0.634%
CCOC(=O)c1ccc(NC(=O)Cn2cc(C(=O)c3cccs3)c3ccccc32)cc1 1.42%
Cc1cccc(OC(=O)c2nc(SCc3ccccc3F)ncc2Cl)c1 -3.89%
CC(=O)CC(c1ccccc1)c1c(O)c2ccccc2oc1=O (stereo not given) 30.9%
O=C(NCC(c1ccc2c(c1)OCO2)N1CCOCC1)C(=O)Nc1ccc(Cl)cc1 (stereo not given) 2.75%
CCCN(CCC)CCCNC(=O)c1sc2nc3n(c(=O)c2c1C)CCC3 -0.214%
CCC1CCCCN1CCCNC(=O)c1sc2nc(C)cc(C)c2c1-n1cccc1 (stereo not given) -3.09%
CCc1cc2c(cc3c(=O)n(CC(=O)NC(C)C)nc(CC)n32)s1 9.77%
COc1ccc(CNC(=O)CSCc2ccc(C)cc2)c(OC)c1 -7.4%
COc1ccccc1NC(=O)c1cc2c(n(-c3ccc(C)cc3)c1=O)CC(C)(C)CC2=O 6.98%
COc1ccc(OC)c(NS(=O)(=O)c2ccc3c(c2)CCCN3C(=O)C2CCC2)c1 0.475%
O=C(Nc1ccc(F)cc1F)c1cc(CN2CCOCC2)on1 16.7%
COc1ccc(CNC(=O)C2=Cc3cccc(OC)c3OC2)cc1OC 0.672%
CCc1nn(CC(=O)NCCN(CC(C)C)CC(C)C)c(=O)c2cc3sc(C)cc3n12 16.4%
Cc1cccc(NC(=O)C(Cc2ccccc2)N2Cc3ccccc3C2=O)c1C (stereo not given) -6.04%
CCc1ccc(NC(=O)c2ccc(F)c(S(=O)(=O)N3CCc4ccccc4C3)c2)cc1 9.77%
COc1cc(Br)c(C2CC(=O)Nc3cc4c(cc32)OCCO4)cc1OC (stereo not given) -6.77%
Cc1ccc(S(=O)(=O)Nc2ccc3c(c2)CCCN3C(=O)c2cccs2)cc1C 0.984%
COc1cccc(C(c2sc3nc(-c4ccco4)nn3c2O)N2CCC3(CC2)OCCO3)c1 (stereo not given) -3.93%
COc1ccc(-c2ccc(=O)n(CC(=O)Nc3ccccc3C(F)(F)F)n2)cc1 3.55%
COc1ccc(-c2nc(CSc3nnc(C)n4c3cc3sccc34)c(C)o2)cc1 -11.5%
Cc1ccc(C2c3[nH]c4ccccc4c3CCN2C(=O)CSc2ccccc2)cc1 (stereo not given) -5.2%
CSc1cccc(NC(=O)C2CCCN(S(=O)(=O)c3ccc4c(c3)CCCN4C(C)=O)C2)c1 (stereo not given) 1.3%
c1coc(CNc2ncnc3nc[nH]c23)c1 4.94%
CCc1nn2c(=O)cc(COC(=O)c3ccccc3NC(=O)c3ccc(C(C)(C)C)cc3)nc2s1 12%
Cc1ccccc1OCC(=O)Nc1nnc(S(=O)(=O)N2CCCCCC2)s1 13.1%
CC(Oc1ccc(Br)cc1)C(=O)N(Cc1nc(-c2ccccc2)no1)C(C)C (stereo not given) 0.741%
Cc1ccc(-c2nnc(Nc3ccc(Br)cc3)c3ccccc23)cc1S(=O)(=O)N1CCCCC1 1.41%
O=C(Cn1cnc2c(nc3n2CCCCC3)c1=O)Nc1ccc(F)cc1 2.86%
CCCN(CCC)CCCNC(=O)Cn1cnc2onc(-c3ccc(F)cc3)c2c1=O -1.67%
COc1cccc(NC(=O)CSc2nc3ccc(NC(=O)c4ccco4)cc3s2)c1 -2.34%
O=C(CCCn1c(=O)[nH]c2ccccc2c1=O)NCc1ccccc1Cl -1.72%
Cc1cc(C)c2c(-n3cccc3)c(C(=O)NCCc3ccc(Cl)cc3)sc2n1 7.21%
CN(C(=O)c1nc(-c2cccc(F)c2)n2c1CCCCC2)c1ccccc1F 14.2%
CCC(=O)NC1CC(=O)N(c2ccc3c(c2)OCCO3)C1 (stereo not given) -9.67%
Cc1ccc2c(=O)cc(C(=O)Nc3c(C)n(C)n(-c4ccccc4)c3=O)oc2c1C 9.33%
COc1ccccc1NC(=O)Cn1c(=O)n(Cc2ccco2)c(=O)c2oc3ccccc3c21 3.55%
COc1cc(-c2cc(OC)c3c(C)oc(C)c3c(=O)c2)ccc1OC(=O)c1ccccc1C 2.8%
COC(=O)C(C)Sc1nnc2cc(C)c3cc(C)cc(C)c3n12 (stereo not given) 1.02%
O=C(c1ccc(F)c(F)c1Nc1ccc(I)cc1F)N1CC(O)([C@H]2CCCCN2)C1 -15.1%
COc1cc(C2c3c(-c4ccccc4O)n[nH]c3C(=O)N2Cc2ccncc2)ccc1O (stereo not given) -9.11%
COc1c(C)c2c(c(O)c1CC=C(C)CCC(=O)OCCN1CCOCC1)C(=O)OC2 -26.1%
CCCOc1ccc(NC(=O)CC2C(=O)N(c3ccccc3)C(=O)N2CCC(C)C)cc1 (stereo not given) -14.6%
CC(C)c1ccc(NC(=O)CCCc2nc(-c3ccc(Cl)cc3)no2)cc1 -0.367%
COc1cc(Cl)c(NC(=O)C2CCN(S(=O)(=O)c3c(C)noc3/C=C/c3ccccc3F)CC2)c(OC)c1 -9.27%
CCc1ccc(NC(=O)CSc2ccc3nnc(CCNS(=O)(=O)c4ccc(OC)cc4)n3n2)cc1 5.91%
COc1cccc(CNC(=O)CC(c2ccc(F)cc2)N2Cc3ccccc3C2=O)c1 (stereo not given) -3.01%
Cc1ccccc1NC(=O)c1ccccc1NC(=O)c1ccccc1Cl -2.24%
Cc1ccc(-c2cn3c(n2)sc2cc(C(=O)NCCCc4ccccc4)ccc23)cc1 5.97%
CCOC(=O)c1cc(-c2ccc(C)cc2)nn1Cc1ccccc1 16%
COc1ccc(NS(=O)(=O)c2ccc(NC(=O)N3CCCC3)cc2)cc1 2.95%
CCOc1ccc(-c2nc3c(C#N)c[nH]n3c2NC2CCCC2)cc1 -5.33%
Cc1ccc(C2=Nc3ccccc3NC(c3ccncc3)=N2)cc1 1.11%
COc1ccc(Nc2cc(C)nc(-n3nc(C)cc3C)n2)cc1Cl 2.64%
CCc1ccc(N2CCn3c2nc2c3c(=O)n(Cc3ccc(F)cc3)c(=O)n2C)cc1 -6.67%
Cc1ccccc1-c1nc(CS(=O)(=O)CC(=O)NC(C)c2ccccc2)c(C)o1 (stereo not given) -22.6%
Cc1ccc(-n2c3c(c(=O)[nH]c2=O)C(NC(=O)c2ccccc2F)(C(F)(F)F)C(=O)N3)cc1C (stereo not given) -4.51%
COc1ccc(-c2cc(C(=O)Nc3c(Cl)cccc3Cl)no2)cc1OC -2.27%
COc1ccc(C(=O)Nc2ccc(-n3nncc3-c3ccc(OC)c(OC)c3)cc2)cc1 -3.85%
Cc1ccc(CNc2ccc(-c3nc(-c4ccco4)no3)cc2[N+](=O)[O-])cc1 1.16%
COc1cc(-c2noc(C3CC(=O)N(c4ccc5c(c4)OCCO5)C3)n2)cc(OC)c1OC (stereo not given) 7.89%
